We go through 73 sequences from PMC10726135.

This is one part of the list. At the low end of the ranking the order means little. Measured with an extract: partners may take part in the binding.

This assay concerns the target T1, HNF4alpha8 (COS-7 nuclear extract) (UniProt P41235-5).
T1 sequence: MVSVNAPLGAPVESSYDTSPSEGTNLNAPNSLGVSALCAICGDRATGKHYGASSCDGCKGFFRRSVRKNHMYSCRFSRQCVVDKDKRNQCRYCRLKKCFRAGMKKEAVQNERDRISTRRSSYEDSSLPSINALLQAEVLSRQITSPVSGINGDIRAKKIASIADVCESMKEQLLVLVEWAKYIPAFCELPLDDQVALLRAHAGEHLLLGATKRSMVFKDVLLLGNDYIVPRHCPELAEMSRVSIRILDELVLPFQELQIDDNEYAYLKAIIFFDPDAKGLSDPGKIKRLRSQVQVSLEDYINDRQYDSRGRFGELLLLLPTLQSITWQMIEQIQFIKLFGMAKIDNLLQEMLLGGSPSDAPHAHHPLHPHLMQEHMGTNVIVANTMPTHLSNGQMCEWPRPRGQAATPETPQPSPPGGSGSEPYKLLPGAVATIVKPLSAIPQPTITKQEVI
As to the kind of experiment: protein-binding microarray. The conditions noted are these: COS-7 nuclear extract on double-stranded Agilent 4x180k PBM; binding buffer, salt, pH and temperature not given; high values mean tight binding; double strand, one strand shown; sequences stand for … in …GCCTAGGGAGATTAGAGTATCGGTCGA
GTAACGTGTCAGAGGTCACTCAGCAATAAA: the binding signal (log2 normalized intensity) turned out to be 1.98.
For the sequence TTAGTAACTGACTTTAACTTCAAAGTCCTG, the binding signal (log2 normalized intensity) stood at 1.47.
Consider TCACAATCACAAATGCCTTCAGGGGCATTT, for which the binding signal (log2 normalized intensity) came to 0.453.
The same measure for GAGCATATAAAAGCAGTCTACACTAGGAGG: -1.28; for TCCGAACCTGCCAAAGAAGAAAACAATGAC: -1.36; for TTATCTAAATGGAGTTACTGTTGCTTCGTG: 0.631.
In the case of TTAGCTATTTGACCTTCGGCCTCAATTATA it was 7.29; in that of CCTCTGAGTCCTCTTCCCAACTTGGCCTCA, 1.54; in that of ACTCTGTGAGAAGGGGTAGTGATCCTGGTA, 0.786.
Take TGGCGCTGTTGACCTTGAAATGCCATGTGA: the binding signal (log2 normalized intensity) came out at 1.79.
The same measure for ACCTTTAAGCACCCAGAGCCCCACCGTTGT: 2.89; for ATCCCCTCCTGGACTTTGGTCTCATGGGCC: 7.4; for AAGCAGCATTAGCCTCTATGTCAGGCCATT: -1.43.
With AAAGTTTCCTCTCCTGCCCTACTCCCTTAA, the binding signal (log2 normalized intensity) is 2.63.
In the case of CTTGCTTTGTCACCCAGGCTGAAGTCCAGT it was 2.77; in that of GCCCAGAGCCAGGTGTGCTGAGGAAACTGA, -1.18.
Consider TCACAATGGGCCCCAGTAAAAACAGTGGGC, for which the binding signal (log2 normalized intensity) was -1.09.
In the case of GAGGCACAGTCTGCTTTCAGAGATGATAAG it was -1.31; in that of GCTGACAGCAGAGAGTTTTCCTTGGCTGTG, -1.15.
With TATTTCAAGAATGCAAAGCCCTGGCTGACC, the binding signal (log2 normalized intensity) is 1.22.
In the case of ACCTCTGTCCTTGGCCTCACAGACAGATAG it was -1.4; in that of TGTTTATCCTGCCTCCATTAATTAACCTTT, 5.39; in that of ACTCAGTTGAAGTTCCAGAAGACTACAAAT, -1.34.
Turning to TTGCCCTGTGGTCTAGCTTGTTCTCTCCCC, the binding signal (log2 normalized intensity) amounted to 2.48.
With TAAGACTATCTCATGACAGACCTAAGAACT, the binding signal (log2 normalized intensity) was -1.29.
As to TTTGGGTAGGAATAGAGCTCTAAACCACCC, the binding signal (log2 normalized intensity) is -1.32.
TCACGTTGGGGGTGCTGATGTTAACACAAG: the binding signal (log2 normalized intensity) was -0.148.
The same measure for AGCAAACCCCAGCTGAACTCACTACCCTAT: -1.26; for AGGAGAAGCTGGAAGGACAGCATTCCTGTC: -1.15.
In the case of CTGCCCTACTGTATATCCTGACACAGGAAG, the binding signal (log2 normalized intensity) came out at 0.466.
The same measure for AGTTCTGGGCCAAAGGTCATACCTGTCTAG: 5.96; for AATAAATGTCATTTAAGACGAGTGGTTTGA: 0.832; for AAAGGTCAGGAATCGCATTGCAAAATCCAT: -1.17.
GGGGCTGCTGGCATCTCATTACTGACAGAG: the binding signal (log2 normalized intensity) is -1.26.
Turning to CTCCAAATTCCAGGATCCAAGATCCAACTC, the binding signal (log2 normalized intensity) is -1.29.
Turning to GAGCTCTGTGTCAAAAATCAGGGACAAAGT, the binding signal (log2 normalized intensity) stood at 1.94.
For CCACACAGCCTGTCAAAGGGAGAAAGACAT, the binding signal (log2 normalized intensity) is -1.42.
For TTCAAATCCTTGCTCTGTGGTTTAGTGGTT, the binding signal (log2 normalized intensity) was 1.93.
On to ACTACATTCTTTGAAGACTAGGCTCCAGAT, for which the binding signal (log2 normalized intensity) was -1.26.
In the case of CCAAGATTGAGGCCAGCAAAGGGCAAGTAA it was 1.35.
Regarding TGCATGCTGCCAAACTGCCCAGCAGAAAAG, the binding signal (log2 normalized intensity) is -1.34.
Turning to ACATGAGTAAACAAGCTCTTTAGATAAACT, the binding signal (log2 normalized intensity) was -1.29.
With ATGTCTGTAGGTAAGCACAAAGTACAGCTT, the binding signal (log2 normalized intensity) came out at 1.48.
With GAGCTGGGTGGCCCTCTCCCGGGGAGGTCA, the binding signal (log2 normalized intensity) was found to be 2.68.
As to CCAGAATTGCTTTACGAAGTGTTTGTCAAG, the binding signal (log2 normalized intensity) was 1.35.
The same measure for CCACACCGAGATAGTAGAGATAGTGATCAA: -0.852.
For the sequence GCTGGAGGGCAAAGGTCAGAGGCTGATTTC, the binding signal (log2 normalized intensity) was determined as 6.65.
In the case of AACCCCACACCTCCCTTGCACCAGTTTCTC, the binding signal (log2 normalized intensity) is 1.98.
The same measure for TACCACCGTATTCCTAGCTCCTAGCACGTT: -1.33.
As for CAGAGGGGTTCCTCAGTAAATGCTGGAGAT, the binding signal (log2 normalized intensity) was -0.234.
In the case of GGCGACGGACGCGCCGCGCCGGGGAAGCTG, the binding signal (log2 normalized intensity) was -1.17.
On to GGAGGCATTCCTGCAATCAGAGCTGGATGT, for which the binding signal (log2 normalized intensity) was -1.38.
Turning to AAAAGCTTATCTGCACAATGAAACTTGGTC, the binding signal (log2 normalized intensity) turned out to be 1.08.
In the case of TGGTGAAAGGAGGAATCTGTGAAGGTCAGG it was 0.84; in that of TTGTTTGTTTTGAGGGTTAAAGGAGATAAT, 1.28; in that of CAGAAAGGCAAGAAGTATGACAACAAAGCA, -1.13.
As for TTTGAAACATAACAGCAACAACACAGATCA, the binding signal (log2 normalized intensity) is -1.4.
Regarding TCTTGGCTTCAAAGGTCACTGTCCTAATTT, the binding signal (log2 normalized intensity) worked out at 4.5.
Take AAAAAACACTCTCAATCTTTGCCCTCTTGG: the binding signal (log2 normalized intensity) stood at 3.63.
Regarding GTATCCCTTGCTCAACTCCCTCTGAAGGGA, the binding signal (log2 normalized intensity) was -1.36.
AAAAAGCCTGAGCATCTTATCAGCAGGAGA: the binding signal (log2 normalized intensity) was -1.21.
Take AGCCTCACCAACAGGATTGTGAAACGTTTG: the binding signal (log2 normalized intensity) is -0.103.
TGGACTTTGGAATTAAGGAGATTTGGCTTT: the binding signal (log2 normalized intensity) turned out to be 5.99.
Consider AGGCAGTGTCACAGAAATCATGTAGCCAGA, for which the binding signal (log2 normalized intensity) is -1.35.
For AAGTGTTTAACTCTTTATCTTTCTCCTACA, the binding signal (log2 normalized intensity) was -1.24.
For the sequence TATCAGCAGGAGGAGGAGCCAGTGAAGACT, the binding signal (log2 normalized intensity) is -1.17.
In the case of CTGTCTGCCATGGGCCTGGCTGAGCCTGGG it was -1.3; in that of GAAGGAGCACCAATGACCTTTGACCCTTCT, 11.2.
As to AACCTAGGAAATCAAAAACCATTTGACAAT, the binding signal (log2 normalized intensity) is -1.12.
Consider AGAAGAAAAGAGTTGCTCAAACCAACATTA, for which the binding signal (log2 normalized intensity) is -1.31.
As to TAGCCTGAAAATGTTTGCCGACCTCCTGAC, the binding signal (log2 normalized intensity) was determined as 0.714.
Turning to AAGAAAAAACAGGTGTTCTTTCCCTCCAGC, the binding signal (log2 normalized intensity) was -1.32.
For the sequence TGGACAGGGGTGTGTTGACCGATAACCCTC, the binding signal (log2 normalized intensity) was determined as 2.75.
